# According to PubChem BioAssay AID1347073 (National Center for Advancing Translational Sciences (NCATS), 2019):
# Hit rate of the full screen: of about 45,000 compounds, about 200 (0.44%) were called active. Not shown: some 7% with an inconclusive outcome. Calls come from the whole dose curve; as a rule, active = well fitted activation curve with a large enough effect; inconclusive = small, poorly fitted or top-dose-only effect; inactive = no such curve, though single readings can be large or run the other way. The list shows a part of the results.
# Assay: qHTS of TDP-43 Inhibitors: NCGC Sytravon Library Screen; note: 0% is about no effect; nearly all actives have a fitted effect of over 55% in size
# Conditions: yeast TDP-43 toxicity rescue, BacTiter-Glo growth, 24 h; series mostly up to 46.1 µM; growth rescue (activation): at the top concentration
# Summary of the method: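 TDP-43-expressing yeast, pregrown in raffinose, seeded at OD600 0.02 in galactose medium with compound for 24 hr at 30 deg C. Growth read by BacTiter-Glo luminescence, so rescue of toxicity appears as activation.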
row,Compound,growth rescue (activation)
1,Cc1ccc(-n2[nH]c(=O)c(-c3ccccn3)c2C)cc1,inactive: 15.1%
2,CCCNC(=O)C1(C)CCN(C(=O)COc2ccc(Cl)cc2Cl)C1 (configuration not stated),inactive: 3.86%
3,COCC(C)NC(=S)NCCc1ccc(Cl)cc1Cl (configuration not stated),inactive: 25.6%
4,O=C(Nc1cccc(Cl)c1)N1Cc2ccccc2Oc2ncccc21,inactive: 12.5%
5,Nc1c(O)ccc2c1C(=O)c1ccccc1C2=O,inactive: -41.8%
6,O=C(/C=C/c1ccc(S(=O)(=O)NCc2ccco2)cc1)NCc1cccc(Cl)c1,inactive: 8.13%
7,CCN1CCN(C(=O)c2cc3cc([N+](=O)[O-])ccc3oc2=O)CC1,inactive: 16.5%
8,COc1ccccc1C(O)(C(=O)NN(C)c1ccccc1)c1ccccc1OC,inactive: 12.3%
9,Cc1cc(-n2c(C)cc(C(=O)CSc3nncn3C)c2C)no1,inactive: 6.1%
10,CC1(C)Cc2nc(Cl)c(C(=O)O)cc2CO1,inactive: -18.4%
11,COc1ccccc1/C=C/C=N/n1c(-c2ccc(F)cc2)n[nH]c1=S,inactive: 11.1%
12,CCOC(=O)C1(CCOc2ccccc2)CCN(Cc2cccn2-c2ncccn2)CC1,inactive: 8.98%
13,NC(c1ccccc1)c1csc(NC(=O)NCC2CCCCC2)n1 (configuration not stated),inactive: 15.8%
14,CCOC(=O)Nc1ccc2c(c1)N(C(=O)CCN1CCOCC1)c1ccccc1S2,inactive: -1.46%
15,CN(C)/C=C/c1onc(-c2c(F)cccc2Cl)c1C#N,inactive: -1.82%
16,CN(CC(=O)NCc1ccccc1Cl)CC(=O)Nc1cccc(F)c1,inactive: 1.4%
17,COc1ccc(/C=C2\SC(=S)N(CCC(=O)Nc3ccccn3)C2=O)cc1OC,inactive: 11.4%
18,COC(=O)N/N=C/c1cc(Cl)cc(Cl)c1OCc1ccccc1F,inactive: 15.2%
19,Nc1nonc1-n1nnc(C(=O)N/N=C\c2cccc(Cl)c2)c1CN1CCOCC1,inactive: 10.5%
20,O=S(=O)(NCC1CCCN(Cc2ccccc2O)C1)c1cccc2cccnc12 (configuration not stated),inactive: 2.37%
21,O=C(c1cc[n+]([O-])cc1)N1CCc2c([nH]c3ccccc23)C1c1ccccc1Cl (configuration not stated),inactive: -4.56%
22,COc1ccc(/C=C2\SC(=O)N(CCC(=O)N3CCCCC3)C2=O)cc1OC,inactive: -12.1%

row,Compound,growth rescue (activation)
1,CCOC(=O)C1(CCOC)CCN(Cc2ccc(C3CCCCO3)s2)CC1 (configuration not stated),inactive: -9.94%
2,Cc1cc(C)c2c(=O)[nH]c(SCc3ccccc3C)nc2n1,inactive: -8.93%
3,CC(=O)CC1=NC(C)(C)Cc2ccccc21,inactive: 20.8%
4,Cc1noc(NS(=O)(=O)c2ccc(NC(=O)c3ccccc3NS(=O)(=O)c3ccc(F)cc3)cc2)c1C,inactive: 2.9%
5,Cn1c(CNc2ccc(F)cc2)nnc1SCC(=O)NNC(=O)Cc1ccccc1,inactive: 12.5%
6,Cc1ccc(S(=O)(=O)Oc2ccccc2/C=C2\SC(=O)NC2=O)cc1,inactive: 7.59%
7,CCc1nc(NCCCN2CCOCC2)c2oc3ccccc3c2n1,inactive: 1.3%
8,Cc1c(NC(=O)Cc2noc3ccccc23)cccc1[N+](=O)[O-],inactive: 14.9%
9,Cc1ccc(S(=O)(=O)/N=C2\SC(CC(=O)Nc3ccc(F)cc3)C(=O)N2c2ccccc2)cc1 (configuration not stated),inactive: 10.5%
10,COC(=O)c1[nH]c2ccc(C)cc2c1NS(=O)(=O)c1ccc(F)c(C)c1,inactive: 28.3%
11,COc1ccc(NC(=O)N2CCCC2C(=O)NCc2ccc(C)cc2)cc1 (configuration not stated),inactive: -3.23%
12,CCOc1cc(CNCCCN2CCOCC2)ccc1OCC(=O)NC(C)(C)C,inactive: 4.31%
13,COCCn1c(SCC(=O)NC2CCCCC2)nnc1-c1ccncc1,inactive: -8.03%
14,CCOc1ccc(C(=O)OCC(=O)NC(C)C)cc1,inactive: -6.54%
15,Cc1cc(=O)[nH]c(SCC(=O)Nc2nonc2C)n1,inactive: 7.42%
16,COc1cccc(-n2c(SCC(=O)Nc3ccc4c(c3)CCC4)nc3ccccc3c2=O)c1,inactive: 2.78%
17,Cn1cnnc1SCC(=O)Nc1cc(S(=O)(=O)N2CCCCCC2)ccc1Cl,inactive: 3.37%
18,Cc1ccc(C(=O)NCC(=O)OCC(=O)Nc2cc(S(=O)(=O)N3CCOCC3)ccc2Cl)s1,inactive: 15.4%
19,O=C(COc1ccc(S(=O)(=O)N2CCOCC2)cc1Cl)NCc1ccco1,inactive: 11.8%
20,O=C(CSc1nnc(-c2ccc(O)cc2)o1)Nc1ccccc1,inactive: 14%
21,COc1ccccc1NC(=O)COC(=O)c1cnc(C)cn1,inactive: -1.36%
22,Cc1ccc(C(=O)N/N=C/C=C/c2ccccc2)o1,inactive: 26.8%

row,Compound,growth rescue (activation)
1,CC(C)CN1C(=O)C(=O)N(CC(=O)NCc2ccc3c(c2)OCO3)C1=O,inactive: -6.02%
2,O=[N+]([O-])c1ccc2c(OCc3nnc(-c4ccccc4Br)o3)ncnc2c1,inactive: -10.7%
3,Cc1cccc(C(=O)N2CCN(CCNC(=O)C(=O)Nc3ccc(F)cc3)CC2)c1,inactive: 0.496%
4,Cc1sc2ncn(CC(=O)N3CCCC(C)C3)c(=O)c2c1S(=O)(=O)N1CCCCC1 (configuration not stated),inactive: -11%
5,O=C(NNC1=NCCC1)c1cccc(S(=O)(=O)N2CCCC2)c1,inactive: -4.23%
6,CCCSc1ncc(Cl)c(C(=O)N(Cc2cccc(Cl)c2)C2CCS(=O)(=O)C2)n1 (configuration not stated),inactive: 16.5%
7,Cc1c(OC(C(=O)O)c2ccccc2)ccc2c(-c3ccccc3)cc(=O)oc12 (configuration not stated),inactive: -15.2%
8,CNC(=S)N(CCc1c(C)[nH]c2ccc(F)cc12)Cc1ccco1,inactive: 9.08%
9,CCN(C(=O)c1cc2c(=O)n3cccc(C)c3nc2s1)C1CCCCC1,inactive: 22.6%
10,CCCC(=O)NC(c1ccc(OC)cc1)c1c(O)ccc2ccccc12 (configuration not stated),inactive: -7.69%
11,COc1ccc(N(CCC#N)C(=O)/C(C#N)=C\c2cccs2)cc1,inactive: 0.667%
12,CCOC(=O)C1CCCN(S(=O)(=O)c2cc(Br)cc3c2N(C(C)=O)CC3)C1 (configuration not stated),inactive: -18.9%
13,CC1CN(CCCCN2C(=O)c3ccccc3C2=O)CC(C)O1 (configuration not stated),inactive: -3.24%
14,Cc1noc(/C=C/c2ccco2)c1S(=O)(=O)N1CCC(C(=O)Nc2ccc(Cl)cn2)CC1,inactive: 3.65%
15,CC(OC(=O)CCCC(=O)Nc1ccccc1)C(=O)c1ccccc1 (configuration not stated),inactive: -15.5%
16,Cc1ccc(S(=O)(=O)NCCn2nc(C)cc2C)cc1,inactive: 3.59%
17,O=S(=O)(c1ccc(Cl)cc1)N(CCCN1CCOCC1)Cc1cccs1,inactive: 9.75%
18,COc1ccccc1C(NC(=O)C1CCCCC1)c1c(O)ccc2ccccc12 (configuration not stated),inactive: 16.4%
19,CCOc1ccc(C(=O)CCC(=O)NCC(=O)OCc2ccccc2)cc1OCC,inactive: -0.159%
20,COc1cccc(CNC(=O)CCCn2ncn3c(cc4occc43)c2=O)c1,inactive: 8.88%
21,CC(C)C(C(=O)NCC1CCCO1)N(C(=O)CNS(=O)(=O)c1ccccc1)c1ccc(F)cc1 (configuration not stated),inactive: 1.15%
22,COc1cc(-c2nc(=S)[nH][nH]2)cc(OC)c1OC,inactive: -7.92%

row,Compound,growth rescue (activation)
1,c1ccc2c(N3CCCCC3)nc(N3CCCCC3)nc2c1,inactive: 7.7%
2,CCOC(=O)c1ccc(NC(=O)Nc2c(C)n(C)n(-c3ccccc3)c2=O)cc1,inactive: 7.13%
3,O=C(CN1CCN(c2ccccn2)CC1)Nc1cccc(S(=O)(=O)N2CCOCC2)c1,inactive: -8.81%
4,O=C(Nc1cccnc1)c1cc(F)c(F)cc1Cl,inactive: 7.7%
5,Cc1cc(C)nc(SCC(=O)N2CCCCC2)n1,inactive: -26.7%
6,O=C1CCC(C(=O)N2CCC(CO)(Cc3ccc(Cl)cc3)CC2)=NN1,inactive: 4.8%
7,COc1cccc(CN2CCN(C3CCN(c4ccccc4F)CC3)CC2CCO)c1 (configuration not stated),inactive: -3.07%
8,CCc1ccccc1Oc1nc(NCCOC)nc2cc(-c3ccccc3)sc12,inactive: 17.5%
9,Cc1cc(C)c(S(=O)(=O)N2CCCC(C(=O)NCc3ccccn3)C2)c(C)c1 (configuration not stated),inactive: -15.4%
10,Cc1cc(C(C)(C)C)cc(C)c1COC(=O)c1cccnc1,inactive: 19%
11,COc1ccccc1/C=N/NC(=O)c1sc(C)nc1C,inactive: 2.71%
12,COc1ccc2nc(NC(=O)c3cccc(OCc4c(C)noc4C)c3)sc2c1,inactive: 17.1%
13,C/C(=N\N1CCN(Cc2ccccc2Cl)CC1)c1ccc(F)cc1,inactive: 13.5%
14,N#Cc1cccc(NC(=O)COC(=O)c2cc(S(=O)(=O)Nc3ccccc3Cl)ccc2O)c1,inactive: 2.77%
15,Cc1ccc(NC(=O)c2ccc(C(C)(C)C)cc2)cc1-n1cnnn1,inactive: -6.01%
16,CC(=O)Oc1ccc(-n2c(=O)c3ccccc3c3ccccc3c2=O)cc1,inactive: -1.3%
17,CCOC(=O)c1c(NC(=O)C(NCCN(C)C)c2ccccc2)sc2c1CCCC2 (configuration not stated),inactive: 3.26%
18,Cc1cccc(OCC(=O)NCCNC(=O)c2ccccn2)c1,inactive: 8.33%
19,Cc1noc(C)c1CSCc1ccc(Cl)cc1,inactive: 29.9%
20,Cc1ccccc1Nc1nnc(SCC(=O)c2ccc(O)cc2O)s1,inactive: 37.8%
21,COc1ccc(NC(=O)C(NC(=O)c2ccc(=O)[nH]c2)c2ccccc2)cc1 (configuration not stated),inactive: 8.1%
22,Cn1c(=O)cc(SCC(=O)N2CCN(C3CCCCC3)CC2)c2ccccc21,inactive: -16.4%

row,Compound,growth rescue (activation)
1,CCOc1cc(/C=C2/C(=N)N3N=C(C)SC3=NC2=O)ccc1OS(=O)(=O)c1ccc(C)cc1,inactive: 13.6%
2,CN1c2cccc3cccc(c23)N(C)C1(C)C,inactive: 21.6%
3,CCOc1ccc(S(=O)(=O)N2CCC(C(=O)NCC3CCCO3)CC2)cc1C (configuration not stated),inactive: -1.5%
4,OCCC1CN(Cc2nc3ccccc3s2)CCN1CCc1ccccc1 (configuration not stated),inactive: -3.94%
5,Cc1cc(C)c(C#N)c(SCc2ccc(C(=O)O)cc2)n1,inactive: -11.3%
6,Cc1ccnc2nc(C(=O)OCC(=O)c3ccc(NC(=O)CC(C)C)cc3)nn12,inactive: 5.69%
7,CC1=NN(c2nc(-c3ccc(C)cc3)cs2)C(=O)C1N=Nc1ccccc1O (configuration not stated),inactive: -10.1%
8,O=C(CCN1C(=O)/C(=C/c2cccs2)SC1=S)Nc1ccc(O)cc1,inactive: -1.18%
9,CCc1nc2ccc(C(=O)Nc3cccc(OC)c3)cn2c1N(C)Cc1ccc(OC)cc1,inactive: 8.12%
10,COc1cc2c(cc1NC(=O)CSc1nnc(Cc3cccs3)n1C)oc1ccccc12,inactive: 6.79%
11,CC(C(=O)Nc1cccnc1)c1ccc([N+](=O)[O-])cc1 (configuration not stated),inactive: -6.44%
12,O=C(O)c1cccc(Cn2c(Cl)c(/C=N/NC(=O)c3ccc(O)cc3)sc2=O)c1,inactive: -27.3%
13,CC(C)CNC(=O)NC(=O)COC(=O)c1ccccc1Sc1ccc(C(F)(F)F)cc1[N+](=O)[O-],inactive: 18.1%
14,N#CC(C(=O)NCCc1ccccc1)c1nc2ccccc2nc1N1CCOCC1 (configuration not stated),inactive: 0.774%
15,O=S(=O)(Nc1nc2ccccc2s1)c1cnc(Cl)c(Br)c1,inactive: 28.9%
16,Cc1cc(NC(=O)C(C)Oc2ccccc2)no1 (configuration not stated),inactive: 12.4%
17,Cc1ccccc1C(=O)NC(C(N)=O)P(=O)(OC(C)C)OC(C)C (configuration not stated),inactive: -5.44%
18,Cc1ccc(NC(=O)CN2C(=O)C3CC=C(Cl)CC3C2=O)cc1 (configuration not stated),inactive: -7.53%
19,CN(C(=O)CSc1cc(C(=O)c2nccn2C)c2ccccc2n1)c1ccccc1,inactive: 23.6%
